According to the supplement of paper PMC6206098:
± gives the uncertainty stated by the source. Shown are siRNA guide strands that differ only in the seed, positions 2 to 7.

Tests used:
3LL = assay: cell viability relative to siNT1 control; higher = less toxic; details: concentration: 10 nM; 96 h; Mus musculus;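 also: Luminescence-based viability of cells reverse transfected in 384-well plates with lipid-complexed siRNAs built on a non-toxic 19mer backbone whose passenger strand carries 2′-O-methyl groups at positions 1 and 2, triplicates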
H460 = assay: cell viability relative to lipid-only control; HeyA8 human ovarian and H460 human lung cancer; M565 mouse liver and 3LL mouse lung cancer; siNT1 is a non-toxic control siRNA; higher = less toxic; details: concentration: 10 nM; 96 h; Homo sapiens
Procedure: (§1)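 Arrayed screen of 4096 siRNA duplexes, each carrying one of all possible 6mer seeds at guide-strand positions 2-7 in a fixed neutral 19mer scaffold (constant flanks: U at position 1, then ACAUGUAAACCA, plus a 3' AA overhang). The passenger strand is 2'-O-methylated at positions 1-2 so only the guide strand loads into RISC. Duplexes were reverse-transfected at 10 nM with RNAiMAX in triplicate in 384-well plates; viability was read by CellTiter-Glo ATP content 96 h after transfection. Values are % viability normalised to lipid-only wells (HeyA8, H460, M565) or to siNT1 (3LL).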

HeyA8 = assay: as above; details: concentration: 10 nM; 96 h; Homo sapiens
Procedure: as §1

M565 = assay: as above; details: concentration: 10 nM; 96 h; Mus musculus
Procedure: as §1
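For cell viability relative to lipid-only control in this document: reverse lipid transfection in 384-well plates, in triplicate, of duplexes on a non-toxic 19mer backbone with passenger strand 2′-O-methylated at positions 1 and 2, luminescence viability read-out.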

| Sequence | cell viability (3LL) [%] | cell viability (H460) [%] | cell viability (HeyA8) [%] | cell viability (M565) [%] |
| --- | --- | --- | --- | --- |
| UCGGAUUACAUGUAAACCAAA | 88.5 ± 13 | 66.2 ± 13 | 83.7 ± 7.3 | 45.2 ± 4.8 |
| UCCGCCUACAUGUAAACCAAA | 86.3 ± 23 | 60 ± 3.4 | 66.7 ± 8.1 | 42.6 ± 9.4 |
| UGAGCCAACAUGUAAACCAAA | 63.8 ± 15 | 63.2 ± 5.2 | 74.5 ± 4.2 | 13.4 ± 1.8 |
| UCAGAUUACAUGUAAACCAAA | 90.6 ± 23 | 59.1 ± 7.8 | 87.8 ± 6.9 | 49.5 ± 8.5 |
| UGCCUACACAUGUAAACCAAA | 53 ± 8.7 | 28.1 ± 2.8 | 27 ± 2.5 | 25.2 ± 3.5 |
| UGAGUGUACAUGUAAACCAAA | 80.2 ± 16 | 62.7 ± 12 | 38.9 ± 6.6 | 19.7 ± 5.6 |
| UCUGGUUACAUGUAAACCAAA | 98.3 ± 16 | 86.5 ± 9.8 | 85.9 ± 3 | 59.8 ± 8.2 |
| UCAAGUUACAUGUAAACCAAA | 65.5 ± 4.6 | 67.4 ± 4.8 | 65.8 ± 4.6 | 21.6 ± 3.4 |
| UACGGUCACAUGUAAACCAAA | 45.9 ± 12 | 57.9 ± 4.5 | 24.3 ± 3.1 | 37.8 ± 5.1 |
| UGCCCGAACAUGUAAACCAAA | 76.5 ± 13 | 64.4 ± 4.3 | 84.6 ± 4.1 | 47.2 ± 1.7 |
| UAUCGUUACAUGUAAACCAAA | 115 ± 16 | 108 ± 7.5 | 97.6 ± 2.4 | 63.7 ± 11 |
| UAACAUAACAUGUAAACCAAA | 91.9 ± 9.7 | 55.9 ± 9.7 | 91.4 ± 14 | 89.5 ± 9.9 |
| UACUGAGACAUGUAAACCAAA | 91.8 ± 13 | 81.8 ± 15 | 106 ± 9 | 38.9 ± 8 |
| UAACAAAACAUGUAAACCAAA | 91.5 ± 8.4 | 60.8 ± 1 | 104 ± 6.9 | 86.8 ± 20 |
| UAUAGGGACAUGUAAACCAAA | 106 ± 13 | 71.3 ± 4.3 | 84.6 ± 3.1 | 81.9 ± 2.1 |
| UGUCAUUACAUGUAAACCAAA | 85.3 ± 12 | 30.2 ± 6 | 43.4 ± 1.7 | 21.8 ± 2.8 |
| UACAUUGACAUGUAAACCAAA | 98.2 ± 19 | 74.4 ± 6.7 | 77.2 ± 12 | 70.3 ± 10 |
| UUGGUUCACAUGUAAACCAAA | 92.3 ± 13 | 73.1 ± 3.9 | 80.1 ± 15 | 88.3 ± 18 |
| UCAGUCCACAUGUAAACCAAA | 47.7 ± 9.9 | 40.7 ± 8.7 | 18.2 ± 0.95 | 26.5 ± 3.4 |

| Sequence | cell viability (3LL) [%] | cell viability (H460) [%] | cell viability (HeyA8) [%] | cell viability (M565) [%] |
| --- | --- | --- | --- | --- |
| UACCGUAACAUGUAAACCAAA | 85.9 ± 3.5 | 104 ± 15 | 83.1 ± 5.8 | 55.3 ± 5.5 |
| UACUUGGACAUGUAAACCAAA | 21.7 ± 5.7 | 52.2 ± 2 | 8.53 ± 1 | 37.9 ± 5.8 |
| UUGCCAUACAUGUAAACCAAA | 61.8 ± 9.7 | 42.6 ± 1.7 | 28.4 ± 2.4 | 31 ± 4.5 |
| UCUCCAUACAUGUAAACCAAA | 92.9 ± 16 | 53.5 ± 7.3 | 82.4 ± 12 | 71.8 ± 12 |
| UGAUGUUACAUGUAAACCAAA | 82.3 ± 16 | 60.7 ± 6.5 | 51.7 ± 4.2 | 33.4 ± 3 |
| UGAGUCGACAUGUAAACCAAA | 101 ± 13 | 78.2 ± 5 | 88.4 ± 3 | 35.3 ± 6.3 |
| UCUGAGAACAUGUAAACCAAA | 99.8 ± 15 | 63.9 ± 4.2 | 91.3 ± 7.7 | 68.1 ± 14 |
| UUUGCGGACAUGUAAACCAAA | 99.8 ± 8.4 | 89.1 ± 5.5 | 93 ± 4.8 | 62.2 ± 5.1 |
| UACUAAAACAUGUAAACCAAA | 98 ± 11 | 93.1 ± 20 | 97.9 ± 15 | 77.9 ± 5.6 |
| UUAACGUACAUGUAAACCAAA | 69.9 ± 17 | 71.4 ± 12 | 92.3 ± 5.8 | 113 ± 7.5 |
| UUCUAUCACAUGUAAACCAAA | 69.2 ± 9 | 48.4 ± 5.1 | 67.2 ± 3.1 | 53 ± 13 |
| UCCACACACAUGUAAACCAAA | 76.7 ± 22 | 50.7 ± 11 | 63.8 ± 6.9 | 25.3 ± 11 |
| UAAACUCACAUGUAAACCAAA | 103 ± 9.9 | 68.9 ± 7.3 | 110 ± 10 | 90.5 ± 10 |
| UAUGUAAACAUGUAAACCAAA | 106 ± 19 | 63.7 ± 10 | 98.3 ± 2.5 | 82.3 ± 7.9 |
| UAAGUAAACAUGUAAACCAAA | 96.3 ± 2.1 | 66.5 ± 8 | 95.2 ± 13 | 90.9 ± 5.2 |
| UACUUGCACAUGUAAACCAAA | 11.1 ± 3 | 40.4 ± 0.57 | 27.3 ± 3 | 11.5 ± 4.3 |
| UUUCCGAACAUGUAAACCAAA | 99.5 ± 5.1 | 87.9 ± 6.3 | 104 ± 2.4 | 83.3 ± 4.2 |
| UACUAAUACAUGUAAACCAAA | 94.3 ± 11 | 76 ± 12 | 74.6 ± 3 | 86.8 ± 18 |
| UCGUUACACAUGUAAACCAAA | 98.6 ± 9.7 | 65.5 ± 14 | 27.9 ± 6.8 | 30.5 ± 6.3 |

| Sequence | cell viability (3LL) [%] | cell viability (H460) [%] | cell viability (HeyA8) [%] | cell viability (M565) [%] |
| --- | --- | --- | --- | --- |
| UCCAGUGACAUGUAAACCAAA | 96.1 ± 27 | 67.8 ± 8.9 | 60.1 ± 5.9 | 38.1 ± 10 |
| UCGGUGUACAUGUAAACCAAA | 59 ± 13 | 47.3 ± 6.1 | 43.3 ± 2.2 | 14 ± 2.5 |
| UCAGACUACAUGUAAACCAAA | 93.9 ± 8.4 | 44 ± 15 | 82.1 ± 6.9 | 55.3 ± 8 |
| UGGAAGGACAUGUAAACCAAA | 25.2 ± 5.2 | 41.5 ± 4.1 | 50.4 ± 5 | 15.3 ± 1 |
| UAACAUGACAUGUAAACCAAA | 93.3 ± 12 | 62.4 ± 6.9 | 94.3 ± 13 | 79.5 ± 12 |
| UUUCGGCACAUGUAAACCAAA | 76.3 ± 9.2 | 49.4 ± 2.8 | 64.4 ± 3.6 | 40.7 ± 7.9 |
| UACAUCAACAUGUAAACCAAA | 90 ± 7.8 | 74.9 ± 4.7 | 75.5 ± 10 | 59.3 ± 6.1 |
| UUUUUUAACAUGUAAACCAAA | 87.9 ± 6 | 62.3 ± 4.4 | 88.9 ± 5.3 | 101 ± 8.3 |
| UACCACUACAUGUAAACCAAA | 66.5 ± 15 | 40.8 ± 8 | 52.7 ± 4 | 7.26 ± 1.7 |
| UACUGUGACAUGUAAACCAAA | 84.2 ± 9.4 | 89 ± 9.2 | 78.4 ± 9.3 | 42.2 ± 8.8 |
| UGGGUCAACAUGUAAACCAAA | 54.8 ± 20 | 34.6 ± 7.5 | 33.1 ± 6.5 | 16.8 ± 1.8 |
| UUCGAAAACAUGUAAACCAAA | 108 ± 20 | 73.1 ± 17 | 91.1 ± 9 | 97 ± 2.4 |
| UUAACCGACAUGUAAACCAAA | 92.8 ± 8.5 | 92.3 ± 23 | 98.9 ± 11 | 104 ± 16 |
| UCUGUAGACAUGUAAACCAAA | 92.3 ± 14 | 63 ± 7.3 | 78.3 ± 8.3 | 59.9 ± 12 |
| UGCAAGCACAUGUAAACCAAA | 14.9 ± 7.1 | 64.4 ± 2.4 | 70.9 ± 2.4 | 14.3 ± 1.3 |
| UUAGGACACAUGUAAACCAAA | 81 ± 8.7 | 26.9 ± 5.8 | 44.1 ± 2.6 | 87 ± 22 |
| UAUUGCUACAUGUAAACCAAA | 70.5 ± 4.2 | 56.9 ± 4.4 | 38.8 ± 7.5 | 41.9 ± 4.4 |
| UGUUGGUACAUGUAAACCAAA | 24 ± 10 | 45.2 ± 5 | 39.5 ± 0.85 | 7.05 ± 0.31 |
| UCGCCGUACAUGUAAACCAAA | 72.7 ± 11 | 50.5 ± 2.8 | 23.3 ± 1.7 | 35.8 ± 5.8 |
